Experimental data: PubChem BioAssay AID2675 (National Center for Advancing Translational Sciences (NCATS), 2010)
In all, about 280,000 compounds went through this assay and about 100 (0.036%) were called active. The inconclusive results got no clear call from the source; some entries with a clear call stand among them for comparison. The call rests on the fitted dose curve; in most records, active means well fitted inhibition curve with a large enough effect in the signal ratio, with a control signal flat (not every such curve was filed as active); inconclusive means small, poorly fitted or top-dose-only effect, or effect the other way, or a change in a side signal; inactive means no such curve, though single readings can be large or run the other way; the % refers to the signal ratio. A potency beside an inconclusive call is a rough fit, not a confirmed value. A note “side channel” means that the fit belongs to a control or component signal, not to the main read-out.

molecular target: Muscleblind-like protein 1 (Homo sapiens) (UniProt Q9NR56); assay: qHTS Assay for Inhibitors of MBNL1-poly(CUG) RNA binding; conditions: TR-FRET MBNL1-His/biotin-(CUG)12 binding, 665/545 ratio; series mostly up to 57.5 µM
Procedure, shortened: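 Compound titration spanned 92 nM–58 uM against the MBNL1-His/biotin-(CUG)12 complex. After 60 min at room temperature with 5 nM streptavidin-XL665 and 0.055 ng/ul terbium anti-His, ratiometric 665/545 nm emission (Ex 340 nm) normalized to controls.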
Potency means the concentration at half of the fitted maximal effect; tags describe the fitted curve by direction and shape or compound fluorescence and quenching.

UniProt Q9NR56, sequence (Q9NR56 whole entry, looked up): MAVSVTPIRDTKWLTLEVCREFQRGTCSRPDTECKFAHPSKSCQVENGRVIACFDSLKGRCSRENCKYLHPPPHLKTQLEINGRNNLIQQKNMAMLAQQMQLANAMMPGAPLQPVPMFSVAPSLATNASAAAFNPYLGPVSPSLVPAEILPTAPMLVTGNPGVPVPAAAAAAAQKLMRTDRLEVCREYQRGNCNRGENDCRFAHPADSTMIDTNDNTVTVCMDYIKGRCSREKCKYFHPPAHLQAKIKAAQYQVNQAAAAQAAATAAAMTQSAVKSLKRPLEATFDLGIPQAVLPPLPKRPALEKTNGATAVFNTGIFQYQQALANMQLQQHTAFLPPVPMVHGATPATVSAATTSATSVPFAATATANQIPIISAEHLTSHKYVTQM

| SMILES | Potency |
| --- | --- |
| O=C(Cc1ccccc1)NCc1n[nH]c(=S)n1-c1ccccc1 | inactive |
| COc1cc(/C=C(\C#N)C(=O)NCC2CCCO2)c([N+](=O)[O-])cc1OC (stereo not given) | inconclusive: 14.1 µM [quencher, side channel, partial curve] |
| COc1ccccc1-n1c(CNc2ccc(F)cc2)nnc1SCC(=O)Nc1cc(C)on1 | inconclusive: 35.5 µM [quencher, side channel, single point] |
| O=C(CSc1nnnn1-c1ccc(O)cc1)Nc1ccc(N2CCOCC2)c(Cl)c1 | inactive |
| COc1nc(-c2ccccc2Cl)ccc1C#N | inconclusive: 2.82 µM [quencher, side channel, single point] |
| O=C(NC1CCCCCCC1)c1ccc(S(=O)(=O)N2CCCC2)cc1 | inactive |
| COc1ccc(/C=C2/SC(=S)N(CCCC(=O)N3CCN(C)CC3)C2=O)cc1 | inconclusive: 10 µM [quencher, side channel, partial curve] |
| O=C(CCC(=O)NCCCc1ccccc1)NCCCc1ccccc1 | inconclusive: 17.8 µM [fluorescent, side channel, partial curve] |
| O=C(/C=C/c1ccc(O)c([N+](=O)[O-])c1)c1ccc2ccccc2c1 | inconclusive: 15.8 µM [quencher, side channel, partial curve] |
| S=C(Nc1ccccc1)Nc1ccccc1-n1cccc1 | inactive |
| NC(=O)C[C@H]1NC(=O)[C@H](CCC(=O)O)NC(=O)c2cc([N+](=O)[O-])cc(I)c2NCCC[C@@H](C(N)=O)NC1=O | inconclusive: 8.91 µM [quencher, side channel, partial curve] |
| O=c1nc2ccc(Cl)cn2c2ccc(S(=O)(=O)N3CCOCC3)cc12 | inconclusive: 3.55 µM [quencher, full curve, poor fit] |
| COc1ccc(C(=O)C(C)[n+]2ccc(-c3nnc4n3CCCCC4)cc2)cc1 (stereo not given) | inconclusive: 12.6 µM [quencher, side channel, partial curve] |
| O=C(O)COc1ccc(/C=N/NC(=O)c2cccc3ccccc23)cc1 | inconclusive: 31.6 µM [quencher, side channel, single point] |
| COc1ccc(OC)c(/C=N/NC(=S)NCCc2ccccc2)c1 | inactive |
| COC(=O)c1ccc(SC2CCCCC2)c([N+](=O)[O-])c1 | inconclusive: 20 µM [quencher, side channel, single point] |
| Cc1ccc(C(=O)NCC(=O)OCC(=O)Nc2ccccc2[N+](=O)[O-])cc1 | inconclusive: 8.91 µM [quencher, side channel, partial curve] |
| O=Cc1c(N2CCCCC2)nc2ccccn2c1=O | inconclusive: 12.6 µM [quencher, side channel, partial curve] |
| O=C(O)CN(CCc1ccccc1)S(=O)(=O)c1ccccc1 | inactive |
| Cc1cccc(Cc2c(C)nc3c(C(=O)N4CCN(Cc5ccc6c(c5)OCO6)CC4)cnn3c2C)c1 | inactive |

| SMILES | Potency |
| --- | --- |
| O=C(N/N=C/c1ccc([N+](=O)[O-])o1)c1ccccc1-n1cccc1 | inconclusive: 7.08 µM [quencher, side channel, partial curve] |
| COc1ccc(/C=C2/Sc3ccc(C(=O)N4CCOCC4)cc3NC2=O)cc1OC | inconclusive: 22.4 µM [quencher, side channel, single point] |
| C=CCn1c(O)c(C2=c3ccccc3=NC2=O)c2ccccc21 | inactive |
| COc1ccc(COn2c(=O)c(C)[n+]([O-])c3ccccc32)cc1OC | inconclusive: 20 µM [quencher, side channel, partial curve] |
| O=C(O)CNC(=S)NCc1ccccc1 | inactive |
| O=C(NC(=O)c1ccccc1)Nc1ccccn1 | inactive |
| CCOC(=O)c1sc(NC(=O)COC(=O)CNC(=O)c2ccco2)c(C(=O)OCC)c1C | inconclusive: 2.82 µM [fluorescent, side channel, full curve, poor fit] |
| Cc1[nH]n(C(N)=S)c(=O)c1N=Nc1ccc([N+](=O)[O-])cc1Cl | inconclusive: 35.5 µM [quencher, partial curve] |
| CCOC(=O)N1CCN(Cc2cc(Cl)c3cccnc3c2O)CC1 | inconclusive: 25.1 µM [quencher, partial curve] |
| O=C(CSc1oc(-c2ccco2)nc1S(=O)(=O)c1ccccc1)NCC1CCCO1 (stereo not given) | inactive |
| Cn1cnnc1SCC(=O)N1c2ccccc2-c2c(ssc2=S)C1(C)C | inconclusive: 2.82 µM [quencher, side channel, full curve, poor fit] |
| CCCOc1ccc(-c2c(=O)n(O)c3ccccc3[n+]2[O-])cc1 | inconclusive: 15.8 µM [quencher, side channel, partial curve] |
| O=C(c1ccco1)N1CCN(C(=S)Nc2cccc([N+](=O)[O-])c2)CC1 | inconclusive: 28.2 µM [quencher, side channel, partial curve] |
| COc1cccc(N=Nc2c(N)[nH]n3c(=O)c4c(nc23)CCCC4)c1 | inconclusive: 2.82 µM [quencher, side channel, full curve, poor fit] |
| CCN(CC)S(=O)(=O)c1ccc(Cl)c(NC(=O)COC(=O)/C=C/c2ccc(O)c(OC)c2)c1 | inconclusive: 0.794 µM [quencher, side channel, full curve, poor fit] |
| Cc1sc2ncnc(N3CCC(C)CC3)c2c1C | inconclusive: 1.12 µM [fluorescent, side channel, partial curve, poor fit] |
| O=C(NNS(=O)(=O)c1ccc(Cl)cc1)c1cccs1 | inactive |
| CCCN1CCN(CCCNC(=O)c2ccc3c(Cl)c4c(nc3c2)CCCC4)CC1 | inconclusive: 15.8 µM [quencher, side channel, partial curve] |
| CC1=CC(C)(C)N2C(=O)C3(SCC(=O)N3c3ccc(F)cc3)c3cc(C)cc1c32 (stereo not given) | inactive |
| CN1CCN(C(=S)Nc2ccc(Cl)cc2Cl)CC1 | inactive |
